Experimental data from publication PMC10541192.
These are yes or no findings as the source states them, for the method shown. In cells and extracts the contact can be indirect. Some binding calls cover weakened binding; strength is not graded here. For some assays here: Where a sequence is shown, tags or fusion partners need not be part of it.

By UniProt entry, the sequences of proteins in these tests, tags left out.
UniProt Q15208: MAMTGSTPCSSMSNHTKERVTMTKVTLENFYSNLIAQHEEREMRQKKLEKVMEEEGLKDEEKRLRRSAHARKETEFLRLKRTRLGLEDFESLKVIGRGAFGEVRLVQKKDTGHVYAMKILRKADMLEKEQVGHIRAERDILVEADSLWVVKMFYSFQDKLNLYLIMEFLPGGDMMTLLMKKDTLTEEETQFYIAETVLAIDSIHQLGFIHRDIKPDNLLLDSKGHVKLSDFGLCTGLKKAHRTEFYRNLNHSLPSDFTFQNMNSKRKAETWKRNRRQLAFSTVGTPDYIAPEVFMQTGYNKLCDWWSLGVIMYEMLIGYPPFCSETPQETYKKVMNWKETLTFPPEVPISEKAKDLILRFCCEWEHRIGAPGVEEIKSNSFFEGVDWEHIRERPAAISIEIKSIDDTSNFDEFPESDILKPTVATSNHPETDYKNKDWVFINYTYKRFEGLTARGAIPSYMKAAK
UniProt P49841: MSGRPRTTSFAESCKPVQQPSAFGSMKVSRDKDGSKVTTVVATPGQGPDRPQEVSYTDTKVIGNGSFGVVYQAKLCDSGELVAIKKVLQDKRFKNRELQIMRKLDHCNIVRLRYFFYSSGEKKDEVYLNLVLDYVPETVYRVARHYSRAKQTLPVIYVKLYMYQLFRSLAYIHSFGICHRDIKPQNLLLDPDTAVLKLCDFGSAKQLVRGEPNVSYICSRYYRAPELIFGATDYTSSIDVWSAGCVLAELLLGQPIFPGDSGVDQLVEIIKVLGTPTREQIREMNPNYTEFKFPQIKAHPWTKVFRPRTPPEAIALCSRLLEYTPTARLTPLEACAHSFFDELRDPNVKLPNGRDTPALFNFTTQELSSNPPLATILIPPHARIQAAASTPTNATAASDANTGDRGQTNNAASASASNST

Assays:
[1] = molecular target: STK38-FLAG (UniProt Q15208); test: co-IP; GFP-FLAG or STK38-FLAG overexpressed in HEK293T cells, stimulated with Wnt3a; IP of STK38; IP product immunoblotted
[2] = molecular target: T1, FLAG-tagged NLRP12 (UniProt P59046); test: co-IP; HEK293T and HCT116 cells overexpressing FLAG-tagged NLRP12 or GFP, stimulated with Wnt3a; NLRP12 pulled down with an anti-FLAG antibody; IP product immunoblotted
T1 sequence: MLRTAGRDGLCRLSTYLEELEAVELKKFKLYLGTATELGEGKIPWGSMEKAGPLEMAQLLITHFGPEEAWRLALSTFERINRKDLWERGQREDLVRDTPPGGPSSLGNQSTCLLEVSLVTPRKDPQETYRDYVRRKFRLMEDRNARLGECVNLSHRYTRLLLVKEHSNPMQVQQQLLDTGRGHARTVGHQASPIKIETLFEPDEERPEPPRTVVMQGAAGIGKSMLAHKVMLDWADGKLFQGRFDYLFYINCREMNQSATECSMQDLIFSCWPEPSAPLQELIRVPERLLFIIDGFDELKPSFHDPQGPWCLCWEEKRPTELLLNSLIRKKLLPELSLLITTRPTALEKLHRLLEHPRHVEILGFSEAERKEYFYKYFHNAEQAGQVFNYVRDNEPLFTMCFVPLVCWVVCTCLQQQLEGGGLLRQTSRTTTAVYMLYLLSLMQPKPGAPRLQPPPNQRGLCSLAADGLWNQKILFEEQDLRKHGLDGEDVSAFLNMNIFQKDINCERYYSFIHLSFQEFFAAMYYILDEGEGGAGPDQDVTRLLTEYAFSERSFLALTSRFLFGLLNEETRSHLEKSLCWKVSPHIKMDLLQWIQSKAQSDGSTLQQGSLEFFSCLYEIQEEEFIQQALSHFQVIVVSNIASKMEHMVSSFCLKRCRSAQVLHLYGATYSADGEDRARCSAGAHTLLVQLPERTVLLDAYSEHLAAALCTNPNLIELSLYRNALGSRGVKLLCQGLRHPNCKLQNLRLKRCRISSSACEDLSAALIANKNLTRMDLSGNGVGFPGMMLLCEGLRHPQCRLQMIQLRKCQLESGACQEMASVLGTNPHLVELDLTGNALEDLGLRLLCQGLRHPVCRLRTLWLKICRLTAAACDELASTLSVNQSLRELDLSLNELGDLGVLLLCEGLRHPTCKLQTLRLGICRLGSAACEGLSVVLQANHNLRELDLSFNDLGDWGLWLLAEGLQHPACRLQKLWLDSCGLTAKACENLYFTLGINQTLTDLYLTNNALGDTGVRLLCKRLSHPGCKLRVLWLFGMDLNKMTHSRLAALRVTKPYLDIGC

[3] = molecular target: STK38 (overexpressed together with NLRP12) (UniProt Q15208); test: co-IP; NLRP12 and STK38 both overexpressed in HEK293T cells; detected by Western blotting (Supplemental Figure 11A)
[4] = molecular target: STK38-FLAG, Q15208; test: co-IP; GFP-FLAG or STK38-FLAG overexpressed in HEK293T cells, stimulated with Wnt3a; IP of STK38; IP product immunoblotted; conditions: remark: other sources report otherwise

glycogen synthase kinase 3β (from UniProt P49841 1-420)
binding [1]: binds

STK38 (from UniProt Q15208 1-465)
binding [2]: binds

B1: NLRP12 (overexpressed together with STK38) (protein, UniProt P59046 1-1061)
chain: MLRTAGRDGLCRLSTYLEELEAVELKKFKLYLGTATELGEGKIPWGSMEKAGPLEMAQLLITHFGPEEAWRLALSTFERINRKDLWERGQREDLVRDTPPGGPSSLGNQSTCLLEVSLVTPRKDPQETYRDYVRRKFRLMEDRNARLGECVNLSHRYTRLLLVKEHSNPMQVQQQLLDTGRGHARTVGHQASPIKIETLFEPDEERPEPPRTVVMQGAAGIGKSMLAHKVMLDWADGKLFQGRFDYLFYINCREMNQSATECSMQDLIFSCWPEPSAPLQELIRVPERLLFIIDGFDELKPSFHDPQGPWCLCWEEKRPTELLLNSLIRKKLLPELSLLITTRPTALEKLHRLLEHPRHVEILGFSEAERKEYFYKYFHNAEQAGQVFNYVRDNEPLFTMCFVPLVCWVVCTCLQQQLEGGGLLRQTSRTTTAVYMLYLLSLMQPKPGAPRLQPPPNQRGLCSLAADGLWNQKILFEEQDLRKHGLDGEDVSAFLNMNIFQKDINCERYYSFIHLSFQEFFAAMYYILDEGEGGAGPDQDVTRLLTEYAFSERSFLALTSRFLFGLLNEETRSHLEKSLCWKVSPHIKMDLLQWIQSKAQSDGSTLQQGSLEFFSCLYEIQEEEFIQQALSHFQVIVVSNIASKMEHMVSSFCLKRCRSAQVLHLYGATYSADGEDRARCSAGAHTLLVQLPERTVLLDAYSEHLAAALCTNPNLIELSLYRNALGSRGVKLLCQGLRHPNCKLQNLRLKRCRISSSACEDLSAALIANKNLTRMDLSGNGVGFPGMMLLCEGLRHPQCRLQMIQLRKCQLESGACQEMASVLGTNPHLVELDLTGNALEDLGLRLLCQGLRHPVCRLRTLWLKICRLTAAACDELASTLSVNQSLRELDLSLNELGDLGVLLLCEGLRHPTCKLQTLRLGICRLGSAACEGLSVVLQANHNLRELDLSFNDLGDWGLWLLAEGLQHPACRLQKLWLDSCGLTAKACENLYFTLGINQTLTDLYLTNNALGDTGVRLLCKRLSHPGCKLRVLWLFGMDLNKMTHSRLAALRVTKPYLDIGC
binding [3]: binds

B2: NLRP12 (protein, UniProt P59046 1-1061)
chain: MLRTAGRDGLCRLSTYLEELEAVELKKFKLYLGTATELGEGKIPWGSMEKAGPLEMAQLLITHFGPEEAWRLALSTFERINRKDLWERGQREDLVRDTPPGGPSSLGNQSTCLLEVSLVTPRKDPQETYRDYVRRKFRLMEDRNARLGECVNLSHRYTRLLLVKEHSNPMQVQQQLLDTGRGHARTVGHQASPIKIETLFEPDEERPEPPRTVVMQGAAGIGKSMLAHKVMLDWADGKLFQGRFDYLFYINCREMNQSATECSMQDLIFSCWPEPSAPLQELIRVPERLLFIIDGFDELKPSFHDPQGPWCLCWEEKRPTELLLNSLIRKKLLPELSLLITTRPTALEKLHRLLEHPRHVEILGFSEAERKEYFYKYFHNAEQAGQVFNYVRDNEPLFTMCFVPLVCWVVCTCLQQQLEGGGLLRQTSRTTTAVYMLYLLSLMQPKPGAPRLQPPPNQRGLCSLAADGLWNQKILFEEQDLRKHGLDGEDVSAFLNMNIFQKDINCERYYSFIHLSFQEFFAAMYYILDEGEGGAGPDQDVTRLLTEYAFSERSFLALTSRFLFGLLNEETRSHLEKSLCWKVSPHIKMDLLQWIQSKAQSDGSTLQQGSLEFFSCLYEIQEEEFIQQALSHFQVIVVSNIASKMEHMVSSFCLKRCRSAQVLHLYGATYSADGEDRARCSAGAHTLLVQLPERTVLLDAYSEHLAAALCTNPNLIELSLYRNALGSRGVKLLCQGLRHPNCKLQNLRLKRCRISSSACEDLSAALIANKNLTRMDLSGNGVGFPGMMLLCEGLRHPQCRLQMIQLRKCQLESGACQEMASVLGTNPHLVELDLTGNALEDLGLRLLCQGLRHPVCRLRTLWLKICRLTAAACDELASTLSVNQSLRELDLSLNELGDLGVLLLCEGLRHPTCKLQTLRLGICRLGSAACEGLSVVLQANHNLRELDLSFNDLGDWGLWLLAEGLQHPACRLQKLWLDSCGLTAKACENLYFTLGINQTLTDLYLTNNALGDTGVRLLCKRLSHPGCKLRVLWLFGMDLNKMTHSRLAALRVTKPYLDIGC
binding [1]: binds

B3: β-catenin, P35222 1-781 (protein)
chain: MATQADLMELDMAMEPDRKAAVSHWQQQSYLDSGIHSGATTTAPSLSGKGNPEEEDVDTSQVLYEWEQGFSQSFTQEQVADIDGQYAMTRAQRVRAAMFPETLDEGMQIPSTQFDAAHPTNVQRLAEPSQMLKHAVVNLINYQDDAELATRAIPELTKLLNDEDQVVVNKAAVMVHQLSKKEASRHAIMRSPQMVSAIVRTMQNTNDVETARCTAGTLHNLSHHREGLLAIFKSGGIPALVKMLGSPVDSVLFYAITTLHNLLLHQEGAKMAVRLAGGLQKMVALLNKTNVKFLAITTDCLQILAYGNQESKLIILASGGPQALVNIMRTYTYEKLLWTTSRVLKVLSVCSSNKPAIVEAGGMQALGLHLTDPSQRLVQNCLWTLRNLSDAATKQEGMEGLLGTLVQLLGSDDINVVTCAAGILSNLTCNNYKNKMMVCQVGGIEALVRTVLRAGDREDITEPAICALRHLTSRHQEAEMAQNAVRLHYGLPVVVKLLHPPSHWPLIKATVGLIRNLALCPANHAPLREQGAIPRLVQLLVRAHQDTQRRTSMGGTQQQFVEGVRMEEIVEGCTGALHILARDVHNRIVIRGLNTIPLFVQLLYSPIENIQRVAAGVLCELAQDKEAAEAIEAEGATAPLTELLHSRNEGVATYAAAVLFRMSEDKPQDYKKRLSVELTSSLFRTEPMAWNETADLGLDIGAQGEPLGYRQDDPSYRSFHSGGYGQDALGMDPMMEHEMGGHHPGADYPVDGLPDLGHAQDLMDGLPPGDSNQLAWFDTDL
binding [4]: no binding
